We go through 26 compounds from PubChem BioAssay AID463173 (ICCB-Longwood Screening Facility, Harvard Medical School, 2010).

Among all 52,000 compounds or so, about 4,300 (8.3%) were called active. No stated cut-off is given here; in the data, active means survival mostly below about 52% (no sharp cut-off); inactive means mostly above about 56%. The list shows a part of the results.

The test system of the experiment is DeltatarO mutant. Briefly: growth inhibition of S. aureus wild type versus tarO mutant, primary screen, teichoic acid synthesis inhibitors, RN4220, OD600 (AID 463173). The conditions noted are these: OD600, 18 h, stronger effect = lower value; concentration not given here unless noted.
In the case of `CCC12CN3CN(C1)CC(CC)(C3)C2O` (stereo unspecified), the survival is inactive: 94%.

`Cc1ccc(-n2c(/C=C\c3ccc(F)c(F)c3)nc3ccccc3c2=O)c(C)c1`: the survival is inactive: 98%. In the case of `Cc1ccc2c(=O)n(-c3cccc(Cl)c3)c(=O)[nH]c2c1` it was inactive: 66%. The figure for `Cc1ccc2nc(NC(=O)c3cccn(Cc4ccccc4F)c3=O)sc2c1` is inactive: 76%; for `COc1cccc(N=Cc2c(O)n(Cc3ccco3)c(=O)[nH]c2=O)c1` it is inactive: 93%. The figure for `O=C1NC(=O)C(CCc2ccncc2)(c2ccccc2)C(=O)N1` is inactive: 71%.

On to `CN1CCC(NCCO)CC1`, for which the survival is inactive: 100%. As to `C=CCN1C(=O)NC(=O)/C(=C/c2ccc(OCC(=O)O)c(OCC)c2)C1=O`, the survival was inactive: 88%.

Take `CCN(CC)C(=O)c1ccc(NC(=O)COc2ccc(-c3nn(C)c(=O)c4ccccc34)cc2)cc1`: the survival is inactive: 72%. With `COc1cc2[nH]c(=O)n(-c3ccc(C)cc3)c(=O)c2cc1OC`, the survival was inactive: 94%. Take `O=C(Nc1ccc(Br)cc1C(=O)c1ccccc1Cl)c1ccc(Br)cc1`: the survival was inactive: 144%. As to `CN1CCC2(CC1)CC(=O)c1ccccc1O2`, the survival is inactive: 85%. For the compound `Cc1ccccc1-c1nc(CN2C(=O)CN=C(c3ccccc3)c3ccccc32)c(C)o1`, the survival is active: -1%.

With `CCc1ccc(-n2nc(C)c3c2NC(=O)CSC3c2ccc(C(=O)OC)cc2)cc1` (stereo unspecified), the survival is inactive: 64%. The figure for `COc1ccccc1-c1nn2c(=O)cc(CN3CCN(C(=O)COc4ccccc4Cl)CC3)nc2s1` is inactive: 78%; for `CCC12CN3CC(CC)(CN(C1)C3c1c(C)[nH]c(=O)[nH]c1=O)C2=O` (stereo unspecified) it is inactive: 86%; for `COc1cc(OC)cc(C(=O)Nc2ccc(Cl)cc2C(=O)c2ccccc2Cl)c1` it is inactive: 171%. Take `O=C(O)c1cncc(O)c1`: the survival was inactive: 94%. Take `O=c1c2ccccc2nc(/C=C/c2cccc3ccccc23)n1-c1ccc(Cl)cc1`: the survival was inactive: 78%. As to `CCOc1ccc2nc(NC(=O)c3cccn(Cc4ccc(C)cc4)c3=O)sc2c1`, the survival was inactive: 67%.

For the compound `Nc1c(C(=O)Nc2ccc(F)c(Cl)c2)sc2nc3c(cc12)N1CCC3CC1`, the survival is inactive: 65%. As for `O=C(Nc1ccccc1)N(Cc1ccc2c(c1)OCO2)C1CCN(Cc2ccccc2)CC1`, the survival is inactive: 94%. As to `O=C(Nc1ccon1)c1cccn(Cc2cccc([N+](=O)[O-])c2)c1=O`, the survival was inactive: 102%.

`O=C(Nc1ccc2c(c1)OCO2)c1cccn(Cc2ccccc2)c1=O`: the survival was inactive: 81%. Turning to `COC(=O)c1ccccc1NC(=O)c1cccn(Cc2cccc(Cl)c2)c1=O`, the survival is inactive: 73%.

`CN1CCC2(CC1)CC(NC=O)c1ccccc1O2` (stereo unspecified): the survival is inactive: 87%.
